Test results taken from paper PMC5026359.
No constants are given. Whether binding was seen depends on the method and setting. For some assays here: Binding seen in cells or lysates may run through a third protein. Some entries that bind do so weakly or less than the wild type.

The chains behind the UniProt entries cited, without tags or fusion partners. Where a name states a change or a piece, a line headed by the entry shows the natural chain unless it says otherwise. A line that says so, or that is headed by a name, gives the form on record, which may keep a tag or linker. Residues count along the entry.
UniProt Q07666: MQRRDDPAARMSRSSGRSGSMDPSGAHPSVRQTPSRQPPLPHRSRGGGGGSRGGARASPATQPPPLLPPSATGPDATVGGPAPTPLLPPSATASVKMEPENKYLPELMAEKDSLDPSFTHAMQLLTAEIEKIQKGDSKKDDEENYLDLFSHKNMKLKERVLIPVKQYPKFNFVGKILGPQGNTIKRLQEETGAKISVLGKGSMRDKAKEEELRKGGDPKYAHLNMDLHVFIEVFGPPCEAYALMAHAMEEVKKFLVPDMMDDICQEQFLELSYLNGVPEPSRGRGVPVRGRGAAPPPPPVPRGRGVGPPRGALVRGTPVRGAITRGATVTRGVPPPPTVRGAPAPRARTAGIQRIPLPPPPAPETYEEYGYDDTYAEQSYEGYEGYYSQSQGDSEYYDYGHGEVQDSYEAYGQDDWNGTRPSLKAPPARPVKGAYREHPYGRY
GFP-Sam68 (ΔC), lacks residues 347–443: residues 1-346 of Q07666
GFP-Sam68 (ΔKH), lacks residues 165–224 (Q07666, form named): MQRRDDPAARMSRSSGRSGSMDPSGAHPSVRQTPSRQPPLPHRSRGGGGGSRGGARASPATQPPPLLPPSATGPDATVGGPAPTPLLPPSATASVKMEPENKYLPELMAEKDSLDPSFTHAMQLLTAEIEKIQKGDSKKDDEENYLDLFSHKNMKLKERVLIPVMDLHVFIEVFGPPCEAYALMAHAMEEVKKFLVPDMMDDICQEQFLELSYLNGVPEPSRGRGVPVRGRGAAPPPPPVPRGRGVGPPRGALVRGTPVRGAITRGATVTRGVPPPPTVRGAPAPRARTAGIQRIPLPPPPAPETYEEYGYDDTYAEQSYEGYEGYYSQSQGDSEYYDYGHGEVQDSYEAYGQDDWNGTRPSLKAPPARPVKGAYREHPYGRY
UniProt Q60749: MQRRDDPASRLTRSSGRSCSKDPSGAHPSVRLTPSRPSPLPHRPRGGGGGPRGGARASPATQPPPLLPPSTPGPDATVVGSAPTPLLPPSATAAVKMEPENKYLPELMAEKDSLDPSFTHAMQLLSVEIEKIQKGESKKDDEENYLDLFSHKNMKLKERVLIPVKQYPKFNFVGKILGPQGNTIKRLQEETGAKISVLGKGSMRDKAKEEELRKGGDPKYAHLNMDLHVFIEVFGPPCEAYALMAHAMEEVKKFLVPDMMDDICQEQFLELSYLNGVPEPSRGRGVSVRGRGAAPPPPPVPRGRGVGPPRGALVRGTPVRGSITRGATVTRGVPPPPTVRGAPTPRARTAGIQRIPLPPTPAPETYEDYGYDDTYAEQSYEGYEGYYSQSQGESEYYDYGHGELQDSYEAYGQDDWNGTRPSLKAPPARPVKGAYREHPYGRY
UniProt P09874: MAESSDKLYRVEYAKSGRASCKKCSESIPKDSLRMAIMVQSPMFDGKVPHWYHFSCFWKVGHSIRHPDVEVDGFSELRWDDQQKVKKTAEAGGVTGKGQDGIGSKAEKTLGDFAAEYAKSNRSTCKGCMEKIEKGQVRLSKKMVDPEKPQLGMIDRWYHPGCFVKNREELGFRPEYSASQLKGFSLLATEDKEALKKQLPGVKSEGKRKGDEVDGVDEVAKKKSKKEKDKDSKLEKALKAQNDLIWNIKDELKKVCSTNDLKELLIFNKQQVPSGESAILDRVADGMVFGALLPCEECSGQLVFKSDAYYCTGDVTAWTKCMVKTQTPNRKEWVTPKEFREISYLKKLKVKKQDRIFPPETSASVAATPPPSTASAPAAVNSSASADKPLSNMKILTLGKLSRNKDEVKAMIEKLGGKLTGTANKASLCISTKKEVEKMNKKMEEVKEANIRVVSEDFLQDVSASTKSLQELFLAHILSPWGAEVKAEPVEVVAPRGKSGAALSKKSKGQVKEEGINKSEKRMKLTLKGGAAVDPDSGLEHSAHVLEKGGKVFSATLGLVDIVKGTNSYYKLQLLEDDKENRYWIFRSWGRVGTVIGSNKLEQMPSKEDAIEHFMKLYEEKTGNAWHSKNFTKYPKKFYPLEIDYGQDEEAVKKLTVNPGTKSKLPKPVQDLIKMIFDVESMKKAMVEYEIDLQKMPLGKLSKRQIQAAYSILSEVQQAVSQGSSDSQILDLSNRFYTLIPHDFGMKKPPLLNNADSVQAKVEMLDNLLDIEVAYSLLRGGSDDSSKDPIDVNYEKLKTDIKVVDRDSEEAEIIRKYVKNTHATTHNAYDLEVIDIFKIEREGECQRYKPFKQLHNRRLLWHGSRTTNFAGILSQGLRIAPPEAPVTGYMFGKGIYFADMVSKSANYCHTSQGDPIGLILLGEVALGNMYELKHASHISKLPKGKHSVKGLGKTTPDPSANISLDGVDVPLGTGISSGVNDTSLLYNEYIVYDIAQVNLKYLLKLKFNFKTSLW
UniProt O88554: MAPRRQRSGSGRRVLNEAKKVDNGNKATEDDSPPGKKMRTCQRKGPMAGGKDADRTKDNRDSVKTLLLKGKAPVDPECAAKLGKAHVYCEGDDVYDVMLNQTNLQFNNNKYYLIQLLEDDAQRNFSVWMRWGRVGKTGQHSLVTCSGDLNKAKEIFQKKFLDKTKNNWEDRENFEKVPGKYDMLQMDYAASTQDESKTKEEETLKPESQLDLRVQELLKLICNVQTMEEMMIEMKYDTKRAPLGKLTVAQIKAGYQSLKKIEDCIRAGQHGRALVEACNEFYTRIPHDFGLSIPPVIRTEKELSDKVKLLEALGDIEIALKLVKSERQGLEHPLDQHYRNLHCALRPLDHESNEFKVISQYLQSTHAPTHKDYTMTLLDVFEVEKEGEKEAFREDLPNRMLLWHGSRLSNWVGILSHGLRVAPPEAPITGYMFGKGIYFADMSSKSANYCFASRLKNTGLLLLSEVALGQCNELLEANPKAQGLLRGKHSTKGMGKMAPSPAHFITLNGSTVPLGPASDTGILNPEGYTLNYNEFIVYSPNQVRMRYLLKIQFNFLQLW
UniProt Q62388: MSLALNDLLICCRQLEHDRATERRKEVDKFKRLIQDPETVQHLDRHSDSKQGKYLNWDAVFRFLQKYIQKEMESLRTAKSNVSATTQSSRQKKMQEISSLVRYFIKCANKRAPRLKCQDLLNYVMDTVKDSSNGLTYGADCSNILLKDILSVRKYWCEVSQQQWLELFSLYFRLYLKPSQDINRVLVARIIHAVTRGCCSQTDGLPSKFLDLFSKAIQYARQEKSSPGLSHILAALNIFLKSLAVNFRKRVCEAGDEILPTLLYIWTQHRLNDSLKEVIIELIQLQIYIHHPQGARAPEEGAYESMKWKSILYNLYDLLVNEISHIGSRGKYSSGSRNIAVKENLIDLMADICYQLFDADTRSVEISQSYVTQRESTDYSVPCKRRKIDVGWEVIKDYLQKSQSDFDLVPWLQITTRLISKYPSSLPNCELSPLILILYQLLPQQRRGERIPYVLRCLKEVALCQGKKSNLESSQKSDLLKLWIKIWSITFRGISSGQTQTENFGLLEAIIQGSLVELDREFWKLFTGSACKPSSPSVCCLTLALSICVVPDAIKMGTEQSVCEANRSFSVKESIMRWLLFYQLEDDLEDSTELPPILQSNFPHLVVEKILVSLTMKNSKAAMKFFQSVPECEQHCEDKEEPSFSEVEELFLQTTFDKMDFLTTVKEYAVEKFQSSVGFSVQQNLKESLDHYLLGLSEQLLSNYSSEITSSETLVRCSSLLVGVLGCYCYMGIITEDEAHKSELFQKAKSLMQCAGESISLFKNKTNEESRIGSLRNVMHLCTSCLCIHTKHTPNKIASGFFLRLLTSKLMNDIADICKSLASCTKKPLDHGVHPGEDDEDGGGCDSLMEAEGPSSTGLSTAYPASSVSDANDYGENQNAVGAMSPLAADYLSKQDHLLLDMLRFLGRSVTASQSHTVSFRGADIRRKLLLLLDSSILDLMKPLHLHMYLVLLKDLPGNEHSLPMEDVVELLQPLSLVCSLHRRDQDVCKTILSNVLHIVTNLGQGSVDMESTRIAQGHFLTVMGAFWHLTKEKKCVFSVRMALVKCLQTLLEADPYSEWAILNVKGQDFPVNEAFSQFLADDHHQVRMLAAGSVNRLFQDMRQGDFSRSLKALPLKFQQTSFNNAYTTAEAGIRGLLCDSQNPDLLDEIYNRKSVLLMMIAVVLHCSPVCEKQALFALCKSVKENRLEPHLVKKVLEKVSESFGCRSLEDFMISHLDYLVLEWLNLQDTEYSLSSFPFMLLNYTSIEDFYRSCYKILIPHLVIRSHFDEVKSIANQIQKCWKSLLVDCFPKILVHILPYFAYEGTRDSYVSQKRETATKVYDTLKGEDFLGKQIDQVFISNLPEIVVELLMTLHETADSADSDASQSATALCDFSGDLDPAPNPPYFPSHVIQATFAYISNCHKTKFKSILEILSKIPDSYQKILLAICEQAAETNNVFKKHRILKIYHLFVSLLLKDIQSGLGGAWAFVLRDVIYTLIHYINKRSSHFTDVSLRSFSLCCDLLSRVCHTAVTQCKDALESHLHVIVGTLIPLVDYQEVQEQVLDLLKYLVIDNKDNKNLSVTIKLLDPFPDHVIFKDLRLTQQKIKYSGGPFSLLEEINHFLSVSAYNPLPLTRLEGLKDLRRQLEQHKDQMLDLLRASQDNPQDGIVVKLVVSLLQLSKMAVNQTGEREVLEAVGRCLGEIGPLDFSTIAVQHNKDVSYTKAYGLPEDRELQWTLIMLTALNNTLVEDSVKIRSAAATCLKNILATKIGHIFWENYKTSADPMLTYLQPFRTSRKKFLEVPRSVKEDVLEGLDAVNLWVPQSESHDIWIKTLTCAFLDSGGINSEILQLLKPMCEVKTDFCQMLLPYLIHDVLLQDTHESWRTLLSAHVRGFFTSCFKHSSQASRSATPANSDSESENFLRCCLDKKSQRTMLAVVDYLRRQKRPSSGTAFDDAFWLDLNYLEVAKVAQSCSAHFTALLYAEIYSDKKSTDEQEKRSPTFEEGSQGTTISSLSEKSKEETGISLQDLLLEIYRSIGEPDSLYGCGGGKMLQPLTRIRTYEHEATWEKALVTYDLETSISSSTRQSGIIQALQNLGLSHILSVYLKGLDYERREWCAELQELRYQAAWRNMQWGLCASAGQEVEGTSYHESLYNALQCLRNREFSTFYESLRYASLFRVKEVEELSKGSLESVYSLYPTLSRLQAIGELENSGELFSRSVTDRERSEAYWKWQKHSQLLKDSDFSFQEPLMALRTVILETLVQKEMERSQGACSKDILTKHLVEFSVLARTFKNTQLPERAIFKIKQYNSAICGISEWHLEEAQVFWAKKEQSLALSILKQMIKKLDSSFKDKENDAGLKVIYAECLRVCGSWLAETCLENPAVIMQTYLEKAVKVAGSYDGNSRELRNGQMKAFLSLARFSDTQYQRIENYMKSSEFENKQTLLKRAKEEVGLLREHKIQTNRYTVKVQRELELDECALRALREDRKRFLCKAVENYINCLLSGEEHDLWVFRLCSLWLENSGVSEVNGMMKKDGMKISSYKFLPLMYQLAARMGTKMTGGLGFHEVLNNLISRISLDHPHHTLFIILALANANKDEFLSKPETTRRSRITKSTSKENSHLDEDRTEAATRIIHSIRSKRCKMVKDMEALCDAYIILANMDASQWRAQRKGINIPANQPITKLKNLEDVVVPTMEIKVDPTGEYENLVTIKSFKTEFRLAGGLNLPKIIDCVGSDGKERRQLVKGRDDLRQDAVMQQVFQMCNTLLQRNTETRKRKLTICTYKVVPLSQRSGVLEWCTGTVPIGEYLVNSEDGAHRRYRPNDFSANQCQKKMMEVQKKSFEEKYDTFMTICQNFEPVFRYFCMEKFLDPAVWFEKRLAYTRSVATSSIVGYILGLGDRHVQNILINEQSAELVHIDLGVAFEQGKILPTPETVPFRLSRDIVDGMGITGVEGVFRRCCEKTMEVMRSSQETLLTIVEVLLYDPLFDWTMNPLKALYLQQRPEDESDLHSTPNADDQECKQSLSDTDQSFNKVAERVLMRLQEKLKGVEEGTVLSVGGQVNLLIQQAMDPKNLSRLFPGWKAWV

Key:
[1] = molecular target: GST-fused full-length Sam68 (UniProt Q07666); experiment: pull-down; GST pulldown: 1 μg of GST/Ni2+ affinity-purified recombinant protein applied to glutathione Sepharose 4B, 1 h at 4°C, washed, eluted, immunoblot; both purified
[2] = molecular target: Src-associated substrate during mitosis of 68 kDa (Sam68), endogenous in mouse embryonic fibroblasts (mouse (endogenous in MEFs)) (UniProt Q60749); experiment: co-IP; endogenous proteins; WT (and Sam68 KO control) MEFs γ-irradiated at 10 Gy, whole cell lysates at time points post irradiation, IP with Sam68 antibody and protein G-agarose, immunoblot; lysis buffer 50 mM Tris-HCl pH 8.0, 150 mM NaCl, 1% NP-40, 0.5% sodium deoxycholate, 4°C; also with PJ-34 (20 μM, 1 h) pretreatment and with ethidium bromide (50 μg/ml) in the lysis buffer
[3] = molecular target: poly(ADP-ribose) polymerase 1 (PARP1), endogenous in mouse embryonic fibroblasts (mouse (endogenous in MEFs)) (UniProt P11103); experiment: co-IP; endogenous proteins; WT MEFs γ-irradiated at 10 Gy, whole cell lysates at time points post irradiation, IP with PARP1 or isotype control antibody, immunoblot
[4] = molecular target: GFP-Sam68 (ΔC), lacks residues 347–443 (UniProt Q07666); experiment: co-IP; whole cell lysates of HEK293T cells expressing GFP or GFP-Sam68 fusion proteins, IP with GFP antibody, immunoblot for endogenous PARP1
[5] = molecular target: GFP-Sam68 (ΔKH), lacks residues 165–224 (UniProt Q07666); experiment: as above
[6] = molecular target: GFP-tagged full-length Sam68 (residues 1–443) (UniProt Q07666); experiment: as above

Molecule | binding [2] | other results
His-PARP1 recombinant protein (from UniProt P09874 1-1014) (enzyme) |  | binding [1]: binds
PARP2, endogenous in mouse embryonic fibroblasts (from UniProt O88554 1-559) (enzyme) | no binding | 
Src-associated substrate during mitosis of 68 kDa (Sam68), endogenous in mouse embryonic fibroblasts (from UniProt Q60749 1-443) |  | binding [3]: binds
ataxia telangiectasia mutated (ATM), endogenous in mouse embryonic fibroblasts (from UniProt Q62388 1-3066) (enzyme) | binds | 
endogenous PARP1 of HEK293T cells (from UniProt P09874 1-1014) (enzyme) |  | binding [4]: binds; binding [5]: binds; binding [6]: binds
poly(ADP-ribose) polymerase 1 (PARP1), endogenous in mouse embryonic fibroblasts (from UniProt P11103 1-1013) (enzyme) | binds | 
PARP3, endogenous in mouse embryonic fibroblasts (enzyme, UniProt Q3ULW8 1-533) MAPKRKASVQTEGSKKRRQGTEEEDSFRSTAEALRAAPADNRVIRVDPSCPFSRNPGIQVHEDYDCTLNQTNIGNNNNKFYIIQLLEEGSRFFCWNRWGRVGEVGQSKMNHFTCLEDAKKDFKKKFWEKTKNKWEERDRFVAQPNKYTLIEVQGEAESQEAVVKALSPQVYSGPVRTVVKPCSLDPATQNLITNIFSKEMFKNAMTLMNLDVKKMPLGKLTKQQIARGFEALEALEEAMKNPTGDGQSLEELSSCFYTVIPHNFGRSRPPPINSPDVLQAKKDMLLVLADIELAQTLQAAPGEEEEKVEEVPHPLDRDYQLLRCQLQLLDSGESEYKAIQTYLKQTGNSYRCPDLRHVWKVNREGEGDRFQAHSKLGNRRLLWHGTNVAVVAAILTSGLRIMPHSGGRVGKGIYFASENSKSAGYVTTMHCGGHQVGYMFLGEVALGKEHHITIDDPSLKSPPSGFDSVIARGQTEPDPAQDIELELDGQPVVVPQGPPVQCPSFKSSSFSQSEYLIYKESQCRLRYLLEIHL | no binding | 
PARP5a, endogenous in mouse embryonic fibroblasts (enzyme, UniProt Q6PFX9 1-1320) MAASRRSQHHHHHHQQQLQPAPGASAPPPPPPPPLSPGLAPGPTPASPTAGGLAPFASPRHGLALPEGDGSRDPPDRPRSPDPVDGAVCTVAAPAAVPAASAAVGVAPTPAGGGGGGGNNSASSASSPTSSSSSSPSSPGSSLAESPEAAGVGSTATLGAGAAGLGPGVPAVSGALRELLEACRNGDVSRVKRLVDAANVNAKDMAGRKSSPLHFAAGFGRKDVVEHLLQMGANVHARDDGGLIPLHNACSFGHAEVVSLLLCQGADPNARDNWNYTPLHEAAIKGKIDVCIVLLQHGADPNIRNTDGKSALDLADPSAKAVLTGEYKKDELLEAARSGNEEKLMALLTPLNVNCHASDGRKSTPLHLAAGYNRVRIVQLLLQHGADVHAKDKGGLVPLHNACSYGHYEVTELLLKHGACVNAMDLWQFTPLHEAASKNRVEVCSLLLSHGADPTLVNCHGKSAVDMAPTPELRERLTYEFKGHSLLQAAREADLAKVKKTLALEIINFKQPQSHETALHCAVASLHPKRKQVAELLLRKGANVNEKNKDFMTPLHVAAERAHNDVMEVLHKHGAKMNALDSLGQTALHRAALAGHLQTCRLLLSYGSDPSIISLQGFTAAQMGNEAVQQILSESTPMRTSDVDYRLLEASKAGDLETVKQLCSPQNVNCRDLEGRHSTPLHFAAGYNRVSVVEYLLHHGADVHAKDKGGLVPLHNACSYGHYEVAELLVRHGASVNVADLWKFTPLHEAAAKGKYEICKLLLKHGADPTKKNRDGNTPLDLVKEGDTDIQDLLRGDAALLDAAKKGCLARVQKLCTPENINCRDTQGRNSTPLHLAAGYNNLEVAEYLLEHGADVNAQDKGGLIPLHNAASYGHVDIAALLIKYNTCVNATDKWAFTPLHEAAQKGRTQLCALLLAHGADPTMKNQEGQTPLDLATADDIRALLIDAMPPEALPTCFKPQATVVSASLISPASTPSCLSAASSIDNLTGPLTDLAVGGASNAGDGAAGAERKEGEVAGLDMNISQFLKSLGLEHLRDIFETEQITLDVLADMGHEELKEIGINAYGHRHKLIKGVERLLGGQQGTNPYLTFHCVNQGTILLDLAPEDKEYQSVEEEMQSTIREHRDGGNAGGIFNRYNVIRIQKVVNKKLRERFCHRQKEVSEENHNHHNERMLFHGSPFINAIIHKGFDERHAYIGGMFGAGIYFAENSSKSNQYVYGIGGGTGCPTHKDRSCYICHRQMLFCRVTLGKSFLQFSTMKMAHAPPGHHSVIGRPSVNGLAYAEYVIYRGEQAYPEYLITYQIMKPEAPSQTATAAEQKT | no binding | 
PARP5b, endogenous in mouse embryonic fibroblasts (enzyme, UniProt Q3UES3 1-1166) MSGRRCAGGGAACASAGAEAVEPSARELFEACRNGDVERVKRLVTPEKVNSRDTAGRKSTPLHFAAGFGRKDVVEYLLQNGANVQARDDGGLIPLHNACSFGHAEVVNLLLQHGADPNARDNWNYTPLHEAAIKGKIDVCIVLLQHGAEPTIRNTDGRTALDLADPSAKAVLTGDYKKDELLESARSGNEEKMMALLTPLNVNCHASDGRKSTPLHLAAGYNRVKIVQLLLHHGADVHAKDKGDLVPLHNACSYGHYEVTELLVKHGACVNAMDLWQFTPLHEAASKNRIEVCSLLLSYGADPTLLNCHNKSAIDLAPTAQLKERLSYEFKGHSLLQAAREADVTRIKKHLSLEMVNFKHPQTHETALHCAAASPYPKRKQICELLLRKGANTNEKTKEFLTPLHVASENAHNDVVEVVVKHEAKVNALDSLGQTSLHRAAHCGHLQTCRLLLSYGCDPNIISLQGFTALQMGNENVQQLLQEGASLGHSEADRQLLEAAKAGDVETVKKLCTVQSVNCRDIEGRQSTPLHFAAGYNRVSVVEYLLQHGADVHAKDKGGLVPLHNACSYGHYEVAELLVKHGAVVNVADLWKFTPLHEAAAKGKYEICKLLLQHGADPTKKNRDGNTPLDLVKDGDTDIQDLLRGDAALLDAAKKGCLARVKKLSSPDNVNCRDTQGRHSTPLHLAAGYNNLEVAEYLLQHGADVNAQDKGGLIPLHNAASYGHVDVAALLIKYNACVNATDKWAFTPLHEAAQKGRTQLCALLLAHGADPTLKNQEGQTPLDLVSADDVSALLTAAMPPSALPTCYKPQVLSGVRGPGATADALSSGPSSPSSLSAASSLDNLSGSFSELSAVVSSSAAEGATGLQRKEDSGIDFSITQFIRNLGLEHLMDIFEREQITLDVLVEMGHKELKEIGINAYGHRHKLIKGVERLISGQQGLNPYLTLNNSGSGTILIDLSPDDKEFQSVEEEMQSTVREHRDGGHAGGVFNRYNILKIQKVCNKKLWERYTHRRKEVSEENHNHANERMLFHGSPFVNAIIHKGFDERHAYIGGMFGAGIYFAENSSKSNQYVYGIGGGTGCPIHKDRSCYICHRQLLFCRVTLGKSFLQFSAMKMAHSPPGHHSVTGRPSVNGLALAEYVIYRGEQAYPEYLITYQIVRPEGMVDG | no binding | 
